Data published in PubChem BioAssay (NCATS).
“And” between values parts separate entries of the source, which are not always exact repeats. Equal entries are not always repeated. The inconclusive results got no clear call from the source; some entries with a clear call stand among them for comparison. No potency is given beside an inconclusive call; the fits are too rough. The source made the active and inactive calls. Calls come from the whole dose curve; as a rule, active = well fitted cell-killing curve with a large enough effect; inconclusive = small, poorly fitted or top-dose-only effect, or effect the other way; inactive = no such curve, though single readings can be large or run the other way.

assay: Viability qHTS for spleen associated tyrosine kinase inhibitor (SYKi) drug resistant MV4-11 cells (AID 1963824); settings: SYKi-resistant MV4-11 viability, CellTiter-Glo, 72 h; series mostly up to 45 µM; note: nearly all actives have a fitted effect of over 35% in size
Outline: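 SYK-inhibitor-resistant MV4-11 AML cells were seeded at 500 per well onto compound and cultured 72 hours (37 °C, 5% CO2). CellTiter-Glo was then added, and after 10 min at room temperature, luminescence gave viability.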
Potency is the fitted concentration of half-maximal effect; tags give direction and shape of the fitted curve.

Question: Which Potency does the source give for `Cc1ccc(C)c(NS(=O)(=O)c2cc(C(=O)Nc3ccccc3-c3ccccc3)ccc2C)c1` here?
Answer: Its Potency is active: 16.4 µM.

Question: For `Cc1nc2c(O)cccc2c(=O)[nH]1`, which Potency is on record?
Answer: Its Potency is “inactive”.

Question: With `COc1ccc(-c2oc3ncnc(N)c3c2-c2ccc(NC(=O)Nc3cc(C(F)(F)F)ccc3F)cc2)cc1` as the compound, how does the Potency read?
Answer: Its Potency is active: 103 nM and active: 166 nM.

Question: Which Potency does the source give for `COC1OC(OC)C(O)(CCC2(C)C(C)CCC3(C)C2CC(O)C(O)C32CO2)C1O` (configuration not stated) here?
Answer: The Potency was “inactive”.

Question: For `C[C@@H](O)[C@H]1C(=O)N2C(C(=O)O)=C(S[C@@H]3CN[C@H](CNS(N)(=O)=O)C3)[C@H](C)[C@H]12`, which Potency is on record?
Answer: Its Potency is inconclusive [cytotoxic, full curve, poor fit].

Question: For `CC(C)CC1OC(=O)C2CCCN2C(=O)CCNC(=O)C(Cc2ccccc2)NC(=O)C(C(C)C)N(C)C(=O)C(C(C)C)N(C)C1=O` (configuration not stated), which Potency is on record?
Answer: Its Potency is inconclusive [cytotoxic, single point].

Question: Which Potency does the source give for `COc1ccc(CCO[C@@H]2CCCC[C@H]2N2CC[C@@H](O)C2)cc1OC` here?
Answer: Its Potency is “inactive”.

Question: With `Oc1cccc(Nc2ccnc3[nH]c4ccccc4c23)c1` as the compound, how does the Potency read?
Answer: The Potency was active: 2.31 µM.

Question: Which Potency does the source give for `CC(=O)Nc1cccc(O)c1` here?
Answer: Its Potency is “inactive”.

Question: With `COc1cc(C2Oc3c(OC)cc(CCCO[C@@H]4O[C@H](CO)[C@@H](O)[C@H](O)[C@H]4O)cc3C2CO)ccc1O` (some centres not stated) as the compound, how does the Potency read?
Answer: Its Potency is “inactive”.

Question: With `OC[C@H]1O[C@@H](O[C@H]2[C@H](OCCc3ccccc3)O[C@H](CO)[C@@H](O)[C@@H]2O)[C@H](O)[C@@H](O)[C@@H]1O` as the compound, how does the Potency read?
Answer: The Potency was “inactive”.

Question: For `COC(=O)c1sccc1S(=O)(=O)Nc1ccc(Nc2ccccc2)cc1OC`, which Potency is on record?
Answer: Its Potency is active: 3.26 µM.
